Data published in the supplement of paper PMC10126150.
Sequences with one replicate were seen in a single cluster, so their values are uncertain.

System: ATP
Assay: switch fluorescence ratio, 500 uM ATP over buffer (Cy3 cluster intensity, sum of 5 cycles each) (fold (ratio)); higher = stronger signal-on switching upon ATP binding; sequences stand for … in TCGTCGGCAGCGTCAGATGTGTATAAGAGACAGTTTTTTTTTTTTTTTTTTTTTTTTT…TC
Conditions: aptamer strand: ATP DNA aptamer (quencher-CACCTGGGGGAGTATTGCGGAGGAAGG + anchor), 100 nM annealed; ATP concentration: 500 uM; one replicate
Outline: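 Clusters with intensities outside 100-1000 RFU were excluded. The remaining Cy3-labelled switching-strand clusters on a modified Illumina MiSeq flow-cell had been annealed to 100 nM quencher-labelled ATP aptamer and imaged in selection buffer, then after 15 min with 500 uM ATP at 22 °C, for five cycles separated by NaOH stripping and re-annealing. The fluorescence ratio, averaged per switch-domain sequence, is each cluster's summed target-cycle Cy3 intensity over its summed buffer-cycle Cy3 intensity.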
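Also: ATP exposure 15 min at 22 °C before imaging.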

Sequence | switch fluorescence ratio
AATGAAACAC | 1.06
AGTTCTAAAA | 0.971
TCACATTCAG | 0.977
GCAATTAGAA | 1.01
ACAGCTTAGT | 1.02
TGCTGGCTTC | 0.926
GGGTGTTCTC | 1.02
CACCCGCCTG | 1.17
TAGAATTCCA | 1.04
GGCTTCGTAG | 1.01
TTTCGGACGA | 1.04
GAAATCTAGT | 0.968
AAATCCATCC | 1.47
ATCATGTCGA | 1.01
CGCAGTCGCG | 1.04
CTTACTACAC | 1.33
TAAACTTGTA | 1
GAATGGTGTA | 1.01
ATGTTCCTTG | 0.981
CATAGTTACA | 1.01
AATGTGGTCA | 0.956
ACTCGGTATC | 1.11
TCCAATGGGA | 1.01

Sequence | switch fluorescence ratio
TCAATCTATG | 1.02
CAGTTCCCCT | 1.03
GCAACGTCGC | 1.01
TGTTGCGCGC | 1.04
GGCGACCGTC | 1.01
GAATGTGTCA | 1
CTGTATATTG | 0.964
ACATACTAAG | 1.34
TGCTACATGG | 0.999
TTCTTGGGCA | 1.03
TTTTCGGCAT | 1.31
TATGCGCAAA | 1.32
CCCTGTTAGC | 1.19
GAGTGACACA | 0.991
CCCCACTCAA | 1.28
TAGTATGTG | 0.952
CCCATAGAAA | 1.01
GGGTTGCACA | 0.997
TGCGGGGTTG | 0.995
AGTGTCTAGC | 0.98
TTGCGTTC | 1.04
TTCACAAAAA | 0.997
GTGTACAATT | 0.97

Sequence | switch fluorescence ratio
GAAAAATTTA | 1.01
AGAGGCCTC | 0.955
CCATTCTAAG | 1.01
TGTGCTTCAT | 1.09
CGACGGTCAA | 2.17
CGAGTCCGTC | 1
CGTCGCGCTG | 1.07
AAGCACGTGG | 0.988
TGCTAACAAT | 1.02
AGAGGTAGTT | 1.01
TCATTGTCGT | 0.997
CTATAGTCGG | 1
AGGTTGTCCA | 1.03
GTACGCATAA | 2.52
CCAATAGTGG | 0.964
CGGCTATGTC | 1.05
CTATATTGTC | 1.03
ATATTTACGC | 1.09
GGTGGTTAGT | 1.03
ACCCATCCA | 1.03
AATTGTTACG | 1.02
ATGCGTGACT | 1.04
AAGGTGAATA | 0.973

Sequence | switch fluorescence ratio
GACAGTTTCA | 0.999
GGAATCAACG | 0.994
TACTACTGTT | 1.06
TTTCCCGCC | 1.25
AGAATGTATT | 1.01
ATGCTGATGG | 0.963
TAAAGCCGTG | 1.01
AGGCGTTACG | 1.02
TTCACTACCC | 1.2
CCATCGTGTT | 0.987
CGATTACAGC | 1
AGGCTCGTTT | 0.994
CGCTGAGTTA | 0.993
GGATTGATAC | 1.1
GATAAATAGT | 1.02
GGCTGCTGGC | 1.01
AAAAGTCGG | 0.969
CGTGACTGGA | 1.02
CTTGTTACTG | 1
AGTGTGTGTT | 1.06
TTTTTCTTGG | 1
AGATGTATGG | 0.984
TACGCCCATC | 1.17

Sequence | switch fluorescence ratio
ACAATCTTCT | 1.05
ACAGAGATAT | 0.994
CTGCAGCAGT | 4.24
TTTTCGTAC | 1.06
CATTATTGCC | 0.989
TGTGCAGGTG | 3.16
GAGCTATCCT | 1.09
ATAAGACGGG | 1.01
GATCCGCTCA | 1.75
GTTGTTCTCA | 1.01
CCTTTATTGG | 0.97
GTCTTAACTG | 1.1
CATAGTCTGC | 1.01
GACAAATACC | 1.18
ATTCAAGCTG | 1.03
ATCCGGGTTG | 0.997
AACAAGTGCG | 0.959
CTCAGACCGG | 0.997
AGCCTATTTC | 1.03
TCTAAGAGAA | 0.996
GGATCCAGCG | 1.01
CGTGTTATTC | 0.985
ACTTGACAAT | 1.14

Sequence | switch fluorescence ratio
ATAACCGAT | 1.06
CTCGCGTTCA | 1.03
CCTATATGC | 0.997
TTTGCTACTT | 1.07
GTCATCATGC | 0.967
TGGGTTAACC | 0.97
GAGTAGCTCT | 1
TGAGGTCGCA | 1.02
GCGGGGCGTG | 1.04
ATAACCGGGT | 1.05
CGTAGCACAA | 5.56
TATAGGGCTC | 1
TATTGTGTCC | 0.975
ATTCACCTCC | 1.29
GGTAGTATGT | 0.981
AGTTTCAAAG | 1.03
CCTAGAACCT | 1.02
GGGCGATCGT | 1.03
ATAGGTGGTA | 0.98
ACTATGTCCT | 1.05
AAATCCGCGG | 1.11
CTGGTGTCCG | 0.968
TTGGACGATA | 1.1

Sequence | switch fluorescence ratio
TGATCTAGAA | 1.02
AGGCAAGTCA | 0.939
TTTGCCGGA | 0.954
TGCATCTGCC | 0.965
GATTTGTATG | 0.97
CAGCTACAAT | 1.02
CGGTTGAGA | 0.974
CTCATTTTTA | 0.987
TGAACGGGAC | 0.976
TATAGATGGA | 1.05
GTCGTCTTAG | 1.03
AGACTTAGAG | 0.964
GGCAGGACCT | 1.15
TCGTATTTA | 0.979
TGATGTTG | 0.996
ATGCAGGTGG | 1.02
ATCGTCAAAC | 1.44
TCCTCTCACA | 2.2
CACTTACGAA | 1.27
